{"source": "PubChem BioAssay AID1476", "about": "(National Center for Advancing Translational Sciences (NCATS), 2009)", "note": "“And” between values parts separate entries of the source, which are not always exact repeats. Equal values may be shown once. The campaign covered roughly 200,000 compounds. About 4,500 (2.2%) were called active. This list was built around the results that the source calls inconclusive (neither active nor inactive); the mix of calls is not that of the screen. The call rests on the fitted dose curve; in most records, active means well fitted inhibition curve with a large enough effect; inconclusive means small, poorly fitted or top-dose-only effect, or effect the other way; inactive means flat fitted curve, though single readings scatter. Potencies beside an inconclusive call are fits to weak or partial responses and may not hold up. Potency means the concentration at half of the fitted maximal effect; tags describe the fitted curve by direction and shape."}
{"target": "Cruzipain (Trypanosoma cruzi) (UniProt P25779)", "sequence (P25779 whole entry, looked up)": "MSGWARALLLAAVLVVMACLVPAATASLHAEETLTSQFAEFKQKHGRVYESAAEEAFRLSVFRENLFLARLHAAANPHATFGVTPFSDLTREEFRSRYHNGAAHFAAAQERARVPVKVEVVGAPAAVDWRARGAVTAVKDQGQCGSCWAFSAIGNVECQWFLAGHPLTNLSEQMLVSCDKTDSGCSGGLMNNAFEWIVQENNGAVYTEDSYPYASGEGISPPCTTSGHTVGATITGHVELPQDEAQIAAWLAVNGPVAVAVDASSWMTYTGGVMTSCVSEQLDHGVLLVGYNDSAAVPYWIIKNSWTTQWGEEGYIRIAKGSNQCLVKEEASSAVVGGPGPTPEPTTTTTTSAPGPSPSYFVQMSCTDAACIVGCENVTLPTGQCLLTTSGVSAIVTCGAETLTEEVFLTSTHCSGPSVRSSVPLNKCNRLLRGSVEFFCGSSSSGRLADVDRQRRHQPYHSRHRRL", "assay": "qHTS Assay for Promiscuous and Specific Inhibitors of Cruzain (without detergent); further: nearly all actives have a fitted effect of over 40% in size;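 on max response, negative = inhibition: plate controls were enzyme without inhibitor for no effect and buffer without enzyme for full effect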", "conditions": "purified cruzain, Z-FR-AMC fluorescence, no detergent", "outline": "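Purified cruzain at 1.5 nM, pre-incubated 15 min with compound at room temperature in 100 mM sodium acetate pH 5.5, 5 mM DTT, 0.00005% Triton X-100. Reaction started with 2 uM Z-FR-AMC; AMC fluorescence increase over 60 s gives rate.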"}
{"smiles": "Cc1cc(NS(=O)(=O)c2ccc(NC(=O)C(C(C)C)N3C(=O)c4ccccc4C3=O)cc2)nc(C)n1", "note": "(stereo unspecified)", "Potency": "inconclusive: 39.8 µM [activator, single point]"}
{"smiles": "C=CCOc1cccc(/C=N/NC(=O)C(=O)NCc2ccco2)c1", "Potency": "inconclusive: 39.8 µM [inhibitor, single point]"}
{"smiles": "OC[C@@H]1[C@@H](c2ccccc2)C(c2ccccc2)=NN1c1ccccc1", "Potency": "active: 28.2 µM"}
{"smiles": "N#C/C(=C\\c1ccccc1[N+](=O)[O-])c1nc(C2CC2)cs1", "max response, negative = inhibition": "inactive: 6.79%"}
{"smiles": "COC(=O)c1sc(S(=O)(=O)N2CCN(c3ccc(OC)cc3)CC2)c(C(=O)OC)c1C", "Potency": "inconclusive: 20 µM [activator, partial curve] and inconclusive: 3.16 µM [activator, single point]"}
{"smiles": "CCOC(=O)c1c(C)[nH]c(C(=O)NNC(=O)c2ccc(C(C)(C)C)cc2)c1C", "Potency": "inconclusive: 39.8 µM [activator, single point]"}
{"smiles": "CCCC(=O)Cl", "max response, negative = inhibition": "inactive: -5.46%"}
{"smiles": "Cc1cc(O)c(C(c2ccccc2)N2CCN(c3ccccc3F)CC2)c(=O)n1Cc1ccco1", "note": "(stereo unspecified)", "Potency": "inconclusive: 39.8 µM [inhibitor, single point]"}
{"smiles": "O=C(Nc1nnc(Cc2ccc(Cl)cc2)s1)c1cccs1", "Potency": "inconclusive: 39.8 µM [inhibitor, single point]"}
{"smiles": "Cc1ccc(C(=O)OCC(=O)Nc2sc3c(c2C#N)CCCCC3)cc1NC(=O)c1ccco1", "Potency": "inconclusive: 25.1 µM [inhibitor, single point]"}
{"smiles": "Cc1cc(C)cc(-n2c(/C=C/c3cccc(F)c3)nc3ccccc3c2=O)c1", "Potency": "inconclusive: 6.31 µM [activator, single point]"}
{"smiles": "CCOc1cccc(NC(=O)C2CC(=O)N(C)C(=Nc3cccc(F)c3)S2)c1", "note": "(stereo unspecified)", "Potency": "inconclusive: 39.8 µM [activator, single point]"}
{"smiles": "COc1ccc(-c2csc3nc(-c4ccc(F)cc4)oc(=O)c23)cc1OC", "max response, negative = inhibition": "inactive: 13.9%"}
{"smiles": "Cc1cccc(C)c1NC(=O)C1c2ccccc2Oc2ccccc21", "Potency": "inconclusive: 25.1 µM [inhibitor, single point]"}
{"smiles": "CCOP(=O)(c1ccccc1)c1nc(-c2ccccc2Cl)oc1N1CCCCC1", "note": "(stereo unspecified)", "Potency": "inconclusive: 39.8 µM [activator, single point]"}
{"smiles": "COc1ccc(Oc2coc3cc(OC(=O)c4cccs4)ccc3c2=O)cc1", "max response, negative = inhibition": "inactive: -26.8%"}
{"smiles": "CCOC(=O)c1sc2nc(-c3ccccc3)ccc2c1N", "Potency": "inconclusive: 20 µM [inhibitor, single point]"}
{"smiles": "O=C(Nc1nc2ccccc2n1CCN1CCCCC1)C1CCCCC1", "max response, negative = inhibition": "inactive: -5.24%"}
{"smiles": "COCCCn1c(SCc2nnc(-c3ccccc3)o2)nc2sc3c(c2c1=O)CCC3", "Potency": "inconclusive: 39.8 µM [activator, single point]"}
{"smiles": "O=C(CSc1nnnn1-c1ccc2c(c1)OCCO2)c1cccc2c1OCCO2", "Potency": "active: 25.1 µM"}
{"smiles": "CCCC1CCc2c(sc(NC(=O)c3cccs3)c2C(N)=O)C1", "note": "(stereo unspecified)", "Potency": "inconclusive: 6.31 µM [inhibitor, partial curve, poor fit]"}
{"smiles": "O=C(COc1ccccc1)NCC(=O)N/N=C/c1cc(Br)ccc1OCc1ccccc1", "Potency": "inconclusive: 39.8 µM [inhibitor, single point]"}
{"smiles": "Cc1ccc(C)c(Nc2nn3c(=O)c4ccc(C(=O)N(C)Cc5ccccc5)cc4nc3s2)c1", "Potency": "inconclusive: 6.31 µM [activator, single point]"}
{"smiles": "N#C/C(=C(/O)Cc1cccc2ccccc12)c1nc2ccccc2s1", "Potency": "active: 12.6 µM"}
{"smiles": "COc1ccccc1C1CC(c2c(-c3ccccc3)c3cc(Cl)ccc3[nH]c2=O)=NN1S(C)(=O)=O", "note": "(stereo unspecified)", "Potency": "inconclusive: 5.01 µM [activator, full curve]"}
{"smiles": "Cc1sc(NC(=O)c2ccco2)c(C(=O)c2ccc(Cl)cc2)c1C", "Potency": "inconclusive: 31.6 µM [inhibitor, single point]"}
{"smiles": "Cc1ccccc1C(=O)Nc1cccc(C(=O)OCc2cc(=O)n3c(C)csc3n2)c1", "max response, negative = inhibition": "inactive: 6.72%"}
{"smiles": "COc1ccccc1N(CC(O)COc1ccccc1C)S(=O)(=O)c1ccccc1", "note": "(stereo unspecified)", "Potency": "inconclusive: 39.8 µM [activator, single point]"}
{"smiles": "CNCCCCc1cnc(C)c2[nH]c3ccccc3c12", "max response, negative = inhibition": "inactive: -15.9%"}
{"smiles": "Cc1cccc(C(=O)Nc2ccc3nc(SCC(=O)N4CCc5ccccc54)sc3c2)c1", "Potency": "inconclusive: 7.94 µM [inhibitor, single point]"}
{"smiles": "COc1ccc(OC)c(-c2nnc3n(CCc4ccccc4)c(=O)c4ccccc4n23)c1", "max response, negative = inhibition": "inactive: -4.14%"}
{"smiles": "COc1ccc(N2CCN(C(=O)CCc3ccc(S(=O)(=O)NCC(C)C)cc3)CC2)cc1", "Potency": "inconclusive: 25.1 µM [activator, single point]"}
{"smiles": "CCOC(=O)c1cccc(NC(=O)C2CCN(S(=O)(=O)c3c(C)noc3/C=C/c3ccc(C)cc3)CC2)c1", "max response, negative = inhibition": "inactive: -10.7%"}
{"smiles": "Cc1cccc(N=C2NC(=O)S/C2=C\\c2ccco2)c1", "Potency": "inconclusive: 31.6 µM [inhibitor, single point]"}
{"smiles": "CC(CNC(=O)c1ccc2nc(CCc3ccccc3)oc2c1)c1ccccc1", "note": "(stereo unspecified)", "max response, negative = inhibition": "inactive: -8.85%"}
{"smiles": "CCCc1cc2c(c(NC(C)=O)n1)c(=O)oc1ccccc12", "Potency": "inconclusive: 0.158 µM [inhibitor, full curve, poor fit]"}
{"smiles": "O=C(Oc1ccc2c(=O)c(Oc3ccc4ccccc4c3)coc2c1)c1ccco1", "Potency": "inconclusive: 39.8 µM [inhibitor, single point]"}
{"smiles": "COc1ccc(NC(=O)c2cc(C(C)=O)n3ccccc23)cc1Cl", "Potency": "inconclusive: 39.8 µM [activator, single point]"}
{"smiles": "N#Cc1nc(COc2ccc(-c3ccccc3)cc2)oc1NCc1cccnc1", "Potency": "inconclusive: 39.8 µM [activator, single point]"}
{"smiles": "COc1cc2c(cc1NC(=O)c1ccc(C)c([N+](=O)[O-])c1)oc1ccccc12", "Potency": "active: 25.1 µM"}
{"smiles": "CCc1ccc(NC(=O)CCCc2nnc3n(C(C)CC)c(=O)c4sccc4n23)cc1", "note": "(stereo unspecified)", "Potency": "inconclusive: 39.8 µM [activator, single point]"}
